About 2,200 (0.71%) of roughly 310,000 compounds showed an effect of 50% or more. Effects have a minus sign here. The list shows a part of the results.
These molecules were tested against human ether-à-go-go-related gene (hERG) potassium channel (human, UniProt Q12809) (assay: primary screen, population patch clamp on CHO cells stably expressing hERG).
Sequence of human ether-à-go-go-related gene (hERG) potassium channel (Q12809 whole entry, looked up): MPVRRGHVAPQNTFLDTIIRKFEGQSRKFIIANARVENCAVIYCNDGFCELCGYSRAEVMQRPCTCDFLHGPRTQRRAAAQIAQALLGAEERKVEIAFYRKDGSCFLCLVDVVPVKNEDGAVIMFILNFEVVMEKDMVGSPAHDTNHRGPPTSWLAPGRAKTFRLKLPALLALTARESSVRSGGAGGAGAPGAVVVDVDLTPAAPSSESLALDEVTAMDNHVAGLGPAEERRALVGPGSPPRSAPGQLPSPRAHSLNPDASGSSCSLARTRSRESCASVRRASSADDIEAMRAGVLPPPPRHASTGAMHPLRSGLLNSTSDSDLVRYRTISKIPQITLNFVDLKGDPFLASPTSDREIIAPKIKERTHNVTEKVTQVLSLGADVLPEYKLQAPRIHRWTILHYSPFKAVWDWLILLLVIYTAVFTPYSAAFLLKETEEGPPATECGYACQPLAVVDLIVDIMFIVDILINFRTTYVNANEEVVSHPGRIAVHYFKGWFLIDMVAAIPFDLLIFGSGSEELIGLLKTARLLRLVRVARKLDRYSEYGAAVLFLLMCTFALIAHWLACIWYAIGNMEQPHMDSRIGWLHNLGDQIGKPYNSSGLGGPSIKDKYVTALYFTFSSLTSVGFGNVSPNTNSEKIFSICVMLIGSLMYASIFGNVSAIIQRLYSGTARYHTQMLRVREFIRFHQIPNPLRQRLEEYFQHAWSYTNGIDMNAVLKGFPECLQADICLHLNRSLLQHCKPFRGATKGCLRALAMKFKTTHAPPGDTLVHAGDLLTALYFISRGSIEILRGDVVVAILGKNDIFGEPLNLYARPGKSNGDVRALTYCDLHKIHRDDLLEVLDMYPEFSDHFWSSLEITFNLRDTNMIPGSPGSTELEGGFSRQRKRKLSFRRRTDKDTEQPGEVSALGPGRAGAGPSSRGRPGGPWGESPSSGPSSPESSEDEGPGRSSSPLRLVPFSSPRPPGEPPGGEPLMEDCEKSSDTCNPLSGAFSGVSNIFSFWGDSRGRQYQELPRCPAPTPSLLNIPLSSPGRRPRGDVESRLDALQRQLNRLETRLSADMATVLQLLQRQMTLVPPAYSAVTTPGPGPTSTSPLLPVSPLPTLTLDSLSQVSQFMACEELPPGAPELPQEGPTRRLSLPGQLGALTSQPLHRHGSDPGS

Question: For `Cc1ccccc1C(=O)NCC(=O)NNC(=O)CCN1CCN(c2ccccc2)CC1`, which “hERG current change (%, negative = inhibition) at 1uM” value is on record?
Answer: 16.4%

Question: How did the “hERG current change (%, negative = inhibition) at 1uM” value turn out when `COc1ccccc1N1CCN(CC(=O)Nc2ccc3c(c2)OCCO3)CC1` was run?
Answer: -0.304%

Question: For `CC(=O)c1cccc(OCC(=O)Nc2ccccc2N2CCOCC2)c1`, which “hERG current change (%, negative = inhibition) at 1uM” value is on record?
Answer: 1.46%

Question: How did the “hERG current change (%, negative = inhibition) at 1uM” value turn out when `CCN(CC)C(=O)c1ccccc1NC(=O)CN1C(=O)c2ccccc2C1=O` was run?
Answer: 9.88%

Question: With `Cc1cc(C)nc(SCC(=O)N(C)CC(=O)Nc2c(Cl)cccc2Cl)n1` as the molecule, how does the “hERG current change (%, negative = inhibition) at 1uM” value read?
Answer: 7.52%

Question: With `O=C(c1cc(-c2ccc(O)cc2)on1)N1CCN(c2ccccc2)CC1` as the molecule, how does the “hERG current change (%, negative = inhibition) at 1uM” value read?
Answer: 15%

Question: For `COc1ccc(C2/C=C\CN(Cc3ccc(N(C)C)cc3)CC(=O)N2Cc2ccc(F)cc2)cc1` (stereo not shown), which “hERG current change (%, negative = inhibition) at 1uM” value is on record?
Answer: 5.68%

Question: `CN1CCN(Cc2ccc(-c3ccc(Cl)cc3)o2)CC1` was tested. Which “hERG current change (%, negative = inhibition) at 1uM” value did it give?
Answer: -0.985%

Question: `COc1ccccc1C(=O)NNC1=C(C(=O)C(F)(F)F)CCC1` was tested. Which “hERG current change (%, negative = inhibition) at 1uM” value did it give?
Answer: 4.92%

Question: Which “hERG current change (%, negative = inhibition) at 1uM” value does the source give for `Cc1ccc(S(C)=O)cc1-n1c(=O)n(Cc2ccccc2)c(=O)c2[nH]cnc21` (stereo not shown) here?
Answer: 16.4%

Question: Which “hERG current change (%, negative = inhibition) at 1uM” value does the source give for `C=CC[C@H]1CC(C)=C[C@H](CC=C)[NH2+]1.[Cl-]` here?
Answer: 12.3%

Question: How did the “hERG current change (%, negative = inhibition) at 1uM” value turn out when `CC(=O)Nc1ccc(OC(=O)c2c(-c3ccccc3Cl)noc2C)cc1` was run?
Answer: 7.45%

Question: For `CC1CCCCN1CCNC(=O)c1cc2c(-c3ccccc3F)nn(C)c2s1` (stereo not shown), which “hERG current change (%, negative = inhibition) at 1uM” value is on record?
Answer: -24%

Question: How did the “hERG current change (%, negative = inhibition) at 1uM” value turn out when `COCCNc1nc(-c2ccccc2)nc2ccccc12.Cl` was run?
Answer: 11.2%

Question: For `CCCC(C(=O)NCC1CCCO1)N(Cc1ccco1)C(=O)CNS(=O)(=O)c1ccccc1` (stereo not shown), which “hERG current change (%, negative = inhibition) at 1uM” value is on record?
Answer: 15%

Question: With `COCCCN1CC(=O)N2C(c3ccc(OC)c(OC)c3)c3[nH]c4ccccc4c3C[C@H]2C1=O` (stereo partly shown) as the molecule, how does the “hERG current change (%, negative = inhibition) at 1uM” value read?
Answer: 9.53%

Question: With `CCOC(=O)C1CCN(S(=O)(=O)c2cc(Br)cc3c2N(C(=O)C2CC2)CC3)CC1` as the molecule, how does the “hERG current change (%, negative = inhibition) at 1uM” value read?
Answer: 6.18%

Question: With `Cc1ccccc1NC(=S)NC1CCCC1` as the molecule, how does the “hERG current change (%, negative = inhibition) at 1uM” value read?
Answer: 17.3%

Question: With `N#CC1=C(N)OC2=C(C(=O)CC(c3ccco3)C2)C1c1ccc(OCc2c(F)cccc2Cl)cc1` (stereo not shown) as the molecule, how does the “hERG current change (%, negative = inhibition) at 1uM” value read?
Answer: 6.87%

Question: For `COc1cc(C)c(CNc2ccc(OC)c(OC)c2)cc1C`, which “hERG current change (%, negative = inhibition) at 1uM” value is on record?
Answer: 11.8%

Question: Which “hERG current change (%, negative = inhibition) at 1uM” value does the source give for `COc1ccc(Cl)cc1NC(=O)C1COc2ccccc2O1` (stereo not shown) here?
Answer: 12.5%

Question: With `CNS(=O)(=O)c1ccc(C(=O)NCC(=O)NCC2COc3ccccc3O2)cc1` (stereo not shown) as the molecule, how does the “hERG current change (%, negative = inhibition) at 1uM” value read?
Answer: 6.97%

Question: Which “hERG current change (%, negative = inhibition) at 1uM” value does the source give for `COc1ccc(CN=C(Nc2ccccc2)SC2CC(=O)NC2=O)cc1` (stereo not shown) here?
Answer: 7.03%

Question: Which “hERG current change (%, negative = inhibition) at 1uM” value does the source give for `N#CCCn1cc(C(=O)Nc2ccccc2Cl)c(-c2ccc(F)cc2)n1` here?
Answer: 15.4%

Question: With `O=C(CCN1C(=O)c2ccccc2S1(=O)=O)Nc1cccc2ccccc12` as the molecule, how does the “hERG current change (%, negative = inhibition) at 1uM” value read?
Answer: 0.236%

Question: Which “hERG current change (%, negative = inhibition) at 1uM” value does the source give for `Cc1ccc(C(=O)N2N=C3c4ccccc4S(=O)(=O)N3[C@H]2N(C)C)cc1` here?
Answer: 9.03%

Question: Which “hERG current change (%, negative = inhibition) at 1uM” value does the source give for `CCCC(CCC)=NNC(=O)c1ccccc1F` here?
Answer: 13.4%

Question: With `COc1ccc(Cn2nc(C)cc2C)cc1OC` as the molecule, how does the “hERG current change (%, negative = inhibition) at 1uM” value read?
Answer: -0.445%

Question: For `O=c1c2ccccc2nnn1CSc1nnc(C2COc3ccccc3O2)n1-c1ccccc1` (stereo not shown), which “hERG current change (%, negative = inhibition) at 1uM” value is on record?
Answer: 11.6%

Question: With `COc1cc2c(cc1OC)CN(C(=O)c1ccc([N+](=O)[O-])o1)CC2` as the molecule, how does the “hERG current change (%, negative = inhibition) at 1uM” value read?
Answer: -8.49%

Question: For `Cc1ccc(Sc2cnc(N)nc2C)cc1`, which “hERG current change (%, negative = inhibition) at 1uM” value is on record?
Answer: 6.07%

Question: With `Cc1c(NC(=O)CSc2nnnn2-c2ccc(O)cc2)c(=O)n(-c2ccccc2)n1C` as the molecule, how does the “hERG current change (%, negative = inhibition) at 1uM” value read?
Answer: -1.4%

Question: Which “hERG current change (%, negative = inhibition) at 1uM” value does the source give for `Cc1nn(Cc2ccccc2)c(C)c1NC(=O)c1ccc([N+](=O)[O-])cc1[N+](=O)[O-]` here?
Answer: -9.88%

Question: With `COc1ccc(-c2sc(Nc3ccccc3)n[n+]2-c2ccc(F)cc2)c(OC)c1OC.[Cl-]` as the molecule, how does the “hERG current change (%, negative = inhibition) at 1uM” value read?
Answer: -42.1%

Question: Which “hERG current change (%, negative = inhibition) at 1uM” value does the source give for `COc1ccc(Nc2nnc(-c3ccc(O)cc3)c3ccccc23)cc1C(N)=O` here?
Answer: 9.02%

Question: Which “hERG current change (%, negative = inhibition) at 1uM” value does the source give for `CC1CCN(c2nc(-c3ccncc3)nc3ccccc23)CC1` here?
Answer: 7.53%

Question: Which “hERG current change (%, negative = inhibition) at 1uM” value does the source give for `Cc1cc(S(=O)(=O)NCc2ccccc2)ccc1OCC(=O)N1CCCC1` here?
Answer: 7.22%

Question: `O=C1C(=O)N(CCCN2CCOCC2)C(c2ccc(F)cc2)/C1=C(/O)c1ccccc1` (stereo not shown) was tested. Which “hERG current change (%, negative = inhibition) at 1uM” value did it give?
Answer: 17.9%

Question: Which “hERG current change (%, negative = inhibition) at 1uM” value does the source give for `CC(=O)c1ccc(N2CCN(C(=O)C3CCCN(S(=O)(=O)c4cnc[nH]4)C3)CC2)cc1` (stereo not shown) here?
Answer: 8.85%

Question: With `O=C1c2ccccc2C(=O)N1Nc1ccc([N+](=O)[O-])cc1[N+](=O)[O-]` as the molecule, how does the “hERG current change (%, negative = inhibition) at 1uM” value read?
Answer: 14.6%

Question: Which “hERG current change (%, negative = inhibition) at 1uM” value does the source give for `NC1=NC(=Nc2cccc(S(=O)(=O)N3CCOCC3)c2)c2ccccc21` here?
Answer: -0.889%

Question: With `CCOc1ccc(-c2cc(CCCC(=O)Nc3cccc(OC)c3)no2)cc1` as the molecule, how does the “hERG current change (%, negative = inhibition) at 1uM” value read?
Answer: 15.5%

Question: Which “hERG current change (%, negative = inhibition) at 1uM” value does the source give for `Cc1ccc(C(=O)c2cc3c(cc2[N+](=O)[O-])OCCO3)cc1` here?
Answer: 3.98%

— paper PMC4336329 (PLoS ONE, 2015)
